Results on 32 sequences are retold here after the supplement of paper PMC12645437, “Orthogonal IMiD-Degron Pairs Induce Selective Protein Degradation in Cells” (ACS Chemical Biology, 2025).

The other results are listed elsewhere or left out.
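Also: jurkat cells carrying a lentiviral library of mutant zinc finger degrons fused to EGFP plus mCherry, mCherry+ cells FACS sorted, degron abundance counted by next-generation sequencing.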

This assay has as its target no compound (DMSO). The experiment in a line: log2 fold change of degron read counts, EGFP-low vs EGFP+ sorted cells; higher = lower degron-EGFP level without compound (poor expression or instability). The conditions noted are these: compound: DMSO control; 18 h.
FICNQCGHQFTQKGNLLRHIKL: the “log2 fold change of degron read counts” value is -2.14. Next, FNCEICGRPFTQKGNLLRHIKL: -0.866; FRCEICGARFTQKGNLLRHIKL: -0.845. Then FMCEICGREFTQKGNLLRHIKL, with -3.52; and FCCNVCGAAFTQKGNLLRHIKL, with -1.39; and FMCEVCGAQFTQKGNLLRHIKL, with -1.74.

On to FNCEICGAQFTQKGNLLRHIKL, for which the “log2 fold change of degron read counts” value is -1.66.

With FTCPICGHFFTQKGNLLRHIKL, the “log2 fold change of degron read counts” value was 0.321. Regarding FTCNICGASFTQKGNLLRHIKL, the “log2 fold change of degron read counts” value was -1.13. Next, FYCEQCGAVFTQKGNLLRHIKL: -1.36.

Take FHCSVCGHWFTQKGNLLRHIKL: the “log2 fold change of degron read counts” value came to 0.685. With FACDVCGAHFTQKGNLLRHIKL, the “log2 fold change of degron read counts” value is -1.09. FWCNQCGRTFTQKGNLLRHIKL: the “log2 fold change of degron read counts” value is 0.985. Then FDCEICGRPFTQKGNLLRHIKL, with -0.596; and FHCPVCGAIFTQKGNLLRHIKL, with -0.381; and FGCDVCGAIFTQKGNLLRHIKL, with 0.0708. Then FMCEQCGALFTQKGNLLRHIKL, with -0.995; and FRCPICGACFTQKGNLLRHIKL, with -0.277.

As to FKCEICGHSFTQKGNLLRHIKL, the “log2 fold change of degron read counts” value was -2.43. Next, FRCNQCGHMFTQKGNLLRHIKL: -0.0929; FECNQCGRVFTQKGNLLRHIKL: -1.31; FYCEICGHWFTQKGNLLRHIKL: 0.275. As to FVCPQCGAYFTQKGNLLRHIKL, the “log2 fold change of degron read counts” value was -0.423. Next, FMCDICGARFTQKGNLLRHIKL: -0.691. With FQCNICGAWFTQKGNLLRHIKL, the “log2 fold change of degron read counts” value worked out at 0.064. Then FFCDQCGAIFTQKGNLLRHIKL, with -0.124; and FWCPICGAGFTQKGNLLRHIKL, with 1.59. Next, FTCNVCGAPFTQKGNLLRHIKL: 0.265. Next, FKCDVCGAHFTQKGNLLRHIKL: -1.06; LMCPICGFMCTQKGNLLRHIKL: 1.13; FTCPICGHMFTQKGNLLRHIKL: 0.421. Turning to FLCPICGHWFTQKGNLLRHIKL, the “log2 fold change of degron read counts” value amounted to 0.237.
